Results on four molecules are retold here after PMC5042435.

Common to all, as to assay: FRET or BRET; FLIM-FRET with acceptor photobleaching (FRAP) in nuclei of transiently transformed N. benthamiana leaves; donor mCer3 on NF-YC, acceptor YFP on HY5 or NF-YB2; donor lifetime before and after YFP photobleaching; 2-4 days after infiltration
Background: In BRET a luciferase serves as donor, and the signal depends on an acceptor being close.

The target in assay [1] is T1, NF-YB2 fused to enhanced yellow fluorescent protein (NF-YB2:YFP) (Arabidopsis thaliana) (UniProt Q9FGJ3).
T1 sequence: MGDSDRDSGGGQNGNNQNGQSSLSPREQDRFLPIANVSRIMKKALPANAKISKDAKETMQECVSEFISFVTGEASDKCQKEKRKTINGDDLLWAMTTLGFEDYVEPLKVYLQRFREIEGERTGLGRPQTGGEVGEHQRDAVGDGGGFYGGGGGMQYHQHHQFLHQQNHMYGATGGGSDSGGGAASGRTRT

Assay [2] concerns the target T2, ELONGATED HYPOCOTYL 5 fused to enhanced yellow fluorescent protein (HY5:YFP) (Arabidopsis thaliana) (UniProt O24646).
T2 sequence: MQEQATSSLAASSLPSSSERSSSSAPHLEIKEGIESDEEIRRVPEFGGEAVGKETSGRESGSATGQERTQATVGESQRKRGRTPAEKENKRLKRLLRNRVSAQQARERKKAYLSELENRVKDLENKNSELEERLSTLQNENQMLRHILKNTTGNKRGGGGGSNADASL

Assay [3] has as its target T3, ELONGATED HYPOCOTYL 5 fused to enhanced yellow fluorescent protein (HY5:YFP) (Arabidopsis thaliana), O24646.
T3 chain: T2 sequence
Conditions: remark: other sources report otherwise.

No constants are given. Whether binding was seen depends on the method and setting. Binding seen in cells or lysates may run through a third protein. Some entries that bind do so weakly or less than the wild type. Tags and fused reporters may be left off the sequences shown.

B1: NF-YC3 fused to modified cerulean 3 (NF-YC3:mCer3) (protein, UniProt Q9ZVL3 1-217)
chain: MDQQGQSSAMNYGSNPYQTNAMTTTPTGSDHPAYHQIHQQQQQQLTQQLQSFWETQFKEIEKTTDFKNHSLPLARIKKIMKADEDVRMISAEAPVVFARACEMFILELTLRSWNHTEENKRRTLQKNDIAAAVTRTDIFDFLVDIVPREDLRDEVLGGVGAEAATAAGYPYGYLPPGTAPIGNPGMVMGNPGAYPPNPYMGQPMWQQPGPEQQDPDN
In the case of B1, the binding entry was “binds” in assay [1] and “no binding” in assay [2].

B2: NF-YC9 fused to modified cerulean 3 (NF-YC9:mCer3) (protein, UniProt Q8L4B2 1-231)
chain: MDQQDHGQSGAMNYGTNPYQTNPMSTTAATVAGGAAQPGQLAFHQIHQQQQQQQLAQQLQAFWENQFKEIEKTTDFKNHSLPLARIKKIMKADEDVRMISAEAPVVFARACEMFILELTLRSWNHTEENKRRTLQKNDIAAAVTRTDIFDFLVDIVPREDLRDEVLGSIPRGTVPEAAAAGYPYGYLPAGTAPIGNPGMVMGNPGGAYPPNPYMGQPMWQQQAPDQPDQEN
Turning to B2, the binding result in assay [1] and in assay [2] was “binds” in each case.

B3: NF-YC4 fused to modified cerulean 3 (NF-YC4:mCer3) (protein, UniProt Q9FMV5 1-250)
chain: MDNNNNNNNQQPPPTSVYPPGSAVTTVIPPPPSGSASIVTGGGATYHHLLQQQQQQLQMFWTYQRQEIEQVNDFKNHQLPLARIKKIMKADEDVRMISAEAPILFAKACELFILELTIRSWLHAEENKRRTLQKNDIAAAITRTDIFDFLVDIVPREEIKEEEDAASALGGGGMVAPAASGVPYYYPPMGQPAVPGGMMIGRPAMDPSGVYAQPPSQAWQSVWQNSAGGGDDVSYGSGGSSGHGNLDSQG
On to B3, for which, in assay [1], the binding result was “binds”.

B4: NF-YC4 fused to modified cerulean 3 (NF-YC4:mCer3), Q9FMV5 1-250 (protein)
chain: B3 chain
On to B4, for which, in assay [3], the binding entry is listed as “no binding”.
